Test results from publication PMC4336329 (PLoS ONE, 2015).
Hit rate of the full screen: of about 310,000 compounds, about 2,200 (0.71%) showed an effect of 50% or more. The effect is printed as a negative number. This is one part of the list.

molecular target: human ether-à-go-go-related gene (hERG) potassium channel (human, UniProt Q12809); test: primary screen, population patch clamp on CHO cells stably expressing hERG
Sequence (Q12809 whole entry, looked up): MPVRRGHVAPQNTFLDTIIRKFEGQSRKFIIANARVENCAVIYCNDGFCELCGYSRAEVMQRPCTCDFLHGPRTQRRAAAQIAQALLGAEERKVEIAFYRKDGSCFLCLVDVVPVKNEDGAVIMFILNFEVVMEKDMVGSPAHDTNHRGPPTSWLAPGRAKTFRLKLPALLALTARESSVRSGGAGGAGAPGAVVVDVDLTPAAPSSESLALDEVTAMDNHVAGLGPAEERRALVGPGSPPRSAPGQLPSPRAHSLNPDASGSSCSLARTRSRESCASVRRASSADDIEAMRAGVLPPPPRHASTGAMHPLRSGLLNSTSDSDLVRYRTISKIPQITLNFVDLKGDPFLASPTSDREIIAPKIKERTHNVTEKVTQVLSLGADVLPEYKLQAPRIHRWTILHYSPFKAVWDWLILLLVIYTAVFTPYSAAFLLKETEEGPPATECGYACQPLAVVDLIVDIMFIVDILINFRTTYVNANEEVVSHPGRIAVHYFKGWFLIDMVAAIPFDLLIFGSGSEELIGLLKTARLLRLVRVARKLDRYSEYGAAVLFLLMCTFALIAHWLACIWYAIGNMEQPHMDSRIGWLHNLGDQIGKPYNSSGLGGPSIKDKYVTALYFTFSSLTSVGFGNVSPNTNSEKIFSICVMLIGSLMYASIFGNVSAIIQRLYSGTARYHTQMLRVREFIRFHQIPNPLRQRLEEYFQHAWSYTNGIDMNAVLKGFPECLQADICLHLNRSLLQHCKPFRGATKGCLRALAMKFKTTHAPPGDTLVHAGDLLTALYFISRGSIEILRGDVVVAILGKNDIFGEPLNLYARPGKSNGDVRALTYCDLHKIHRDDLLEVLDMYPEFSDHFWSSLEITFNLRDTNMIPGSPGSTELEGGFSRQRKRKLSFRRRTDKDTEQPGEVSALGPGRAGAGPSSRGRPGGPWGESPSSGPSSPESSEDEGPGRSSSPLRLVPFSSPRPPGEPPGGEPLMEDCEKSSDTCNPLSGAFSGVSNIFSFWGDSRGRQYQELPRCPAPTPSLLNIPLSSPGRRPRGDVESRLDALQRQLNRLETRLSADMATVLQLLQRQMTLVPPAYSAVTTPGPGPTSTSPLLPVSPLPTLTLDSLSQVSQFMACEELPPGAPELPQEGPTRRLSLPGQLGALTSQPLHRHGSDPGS

Row | Structure (SMILES) | hERG current change (%, negative = inhibition) at 1uM [%]
1 | C=CCN(CC=C)C(=O)c1ccncc1 | 4.58
2 | CC1(C(=O)NCc2ccc(F)cc2)Oc2ccccc2NC1=O (stereo not shown) | -2.56
3 | N#C/C(=C(/O)CCl)c1nnc2n1CCCCC2 | 11.1
4 | COc1cccc(CNc2nn[nH]n2)c1OC | 16.1
5 | CC(C)c1ccc(-c2nc3c([nH]2)c(=O)n(C)c(=O)n3C)cc1 | 10.7
6 | COCCn1c(SCC(=O)N2CCCCC2)nc2c(c1=O)SC(C)C2 (stereo not shown) | 12.4
7 | CC(C)Cc1nc2ccccc2[nH]1 | 14.7
8 | COc1ccc2[nH]c(C(=O)O)c(CCC(=O)O)c2c1 | 17.2
9 | O=c1c2ccccc2nnn1Cc1ccc(Br)cc1 | 13.5
10 | COc1cccc(C(=O)Nc2cnn(C(C)C)c2)c1 | 15.4
11 | Clc1ccc(C2[C@H]3CN(Cc4ccc(-c5ccccc5)cc4)[C@H](c4ccccc4)C34CC2(c2ccccc2)C4)cn1 (stereo partly shown) | 3.84
12 | N#Cc1cc(-c2ccc(Cl)cc2)cnc1Sc1ccccc1 | 2.86
13 | CC1CCCCC1NC(=O)CN1CCN(Cc2ccccc2Cl)C1=O (stereo not shown) | 2.68
14 | C/C(N)=C(/C#N)C(=O)CSc1nc2ccc(C)cc2[nH]1 | 11
15 | CCC(=O)Nc1cccc(NC(=O)c2ccc(C)cc2Cl)c1 | 24.1
16 | CCCCn1c(N)c(N(CCOC)C(=O)COC(=O)CCOc2ccccc2)c(=O)[nH]c1=O | 5.89
17 | CCOc1ccccc1NC(=O)/C(C#N)=C/c1cccnc1 | 10.7
18 | COc1cccc(/C=N/Nc2nnc(C)n2N)c1OCc1ccccc1Cl.Cl | 9.89
19 | Cc1[nH]nc2nc3c(c(OC(=O)c4ccccc4)c12)c(=O)n(C)c(=O)n3C | 5.4
20 | O=C(O)CC1=C(Nc2ccccc2)C(=O)N(c2ccccc2)C1c1ccc(Br)cc1 (stereo not shown) | 12.2

Row | Structure (SMILES) | hERG current change (%, negative = inhibition) at 1uM [%]
21 | CC(=O)N1CC(=O)Nc2ccc(Br)cc2C1c1ccc(F)cc1 (stereo not shown) | 2.13
22 | Cc1cc(C)c(C(=O)COC(=O)[C@H](C)Nc2ccc(C(F)(F)F)cc2[N+](=O)[O-])c(C)c1 | 18.8
23 | COc1ccc(N2CCN(C(=O)CN3C(=O)NC(C)(C4CC4)C3=O)CC2)cc1 (stereo not shown) | 8.53
24 | COc1ccc(CCN2C(=O)C(O)=C(C(=O)c3ccco3)C2c2cccs2)cc1OC (stereo not shown) | 18
25 | O=c1[nH]nc(-c2ccc(F)cc2)cc1Cc1ccccn1 | 7.38
26 | COc1ccc(OC)c(NC(=O)Nc2nnc(N3CCC(C)CC3)s2)c1 | 12
27 | Cc1ccccc1NC(=S)NCc1ccc(Cl)cc1 | 11.6
28 | COc1ccc(OCCN2C(=O)c3cccc(N)c3C2=O)cc1 | 9.4
29 | Cc1ccc(S(=O)(=O)Nc2ccc(Cl)cc2)cc1NC(=O)c1cc2c(s1)CCCC2 | -1.78
30 | Cc1ccc(-n2c(CSc3nc(C)cc(C)n3)nnc2SCC(=O)Nc2nccs2)cc1 | 10.1
31 | COc1cc(C(=O)NCCOc2ccccc2C)cc(OC)c1OC | 12.3
32 | C/C(=N\NC(=O)c1ccc(F)cc1)c1cccc(NC(=O)c2cccc(F)c2)c1 | 12.6
33 | Cc1ccc(Cn2c(N3CCN(C)CC3)nc3c2c(=O)[nH]c(=O)n3C)cc1 | 8.23
34 | COc1ccccc1NC(=O)Nc1ncccc1C | -0.0475
35 | O=C(c1ccccc1Cl)N1CCC(N2CCC(C(=O)N3CCCC3)CC2)CC1 | 1.54
36 | COc1ccc(CCNC(=O)COc2ccc(S(=O)(=O)N3CCCC3)cc2)cc1 | 4.23
37 | Cc1cccc(C(=O)N[C@H](C(=O)Nc2nc3ccc(S(C)(=O)=O)cc3s2)C(C)C)c1 | 2.4
38 | COc1ccc(CC(=O)NNC(=O)c2cccs2)cc1 | 7.01
39 | Cl.c1ccc(CSC2=NCCCN2)cc1 | 13.3
40 | COc1ccc(N2C(=O)CC(N3CCN(c4ccccc4)CC3)C2=O)cc1 (stereo not shown) | 14.5

Row | Structure (SMILES) | hERG current change (%, negative = inhibition) at 1uM [%]
41 | O=C(Cn1cnc2ccccc21)Nc1ccc(SC(F)F)cc1 | -12.5
42 | CCOC(=O)N1CCN(C(=O)COc2ccc(S(=O)(=O)Nc3ccc(OCC)cc3)cc2)CC1 | 11.5
43 | CCC(Cc1ccccc1)NS(=O)(=O)c1csc(C(N)=O)c1 (stereo not shown) | 22.5
44 | O=C(Nc1cccc(C(F)(F)F)c1)/C(=C\c1ccco1)NC(=O)c1cccs1 | 6.67
45 | Cn1cc(C(=O)NS(=O)(=O)Nc2ccc(Br)cn2)c2ccccc21 | 14.9
46 | COCCNc1nc(CSc2ccccc2)nc2sc(C)c(C)c12 | 11.8
47 | O=C(CC1CCCC1)N1CCN(S(=O)(=O)c2ccccc2)CC1 | -6.89
48 | O=C(CCN1C(=O)c2ccccc2C1=O)N1CCN(c2ccccn2)CC1 | -5.13
49 | OC(Cn1cccn1)c1ccccc1 (stereo not shown) | 21.5
50 | CN(Cc1ccccc1)C1CCNCC1.Cl | 17.5
51 | COc1ccc(C)cc1N(C(=O)c1ccc(F)cc1)c1nc2ccccc2s1 | 8.84
52 | COC(=O)Nc1ccc2c(c1)N(C(=O)CCCl)c1ccccc1S2 | 12.5
53 | Cc1ccccc1C(=O)Nc1ccc(S(=O)(=O)N2CC(C)OC(C)C2)cc1 (stereo not shown) | 16.6
54 | Cc1cc(C)cc(OCC(=O)NC2CCCc3ccccc32)c1 (stereo not shown) | 0.476
55 | CCOC(=O)CSc1nnc(-c2cc(OC)c(OC)c(OC)c2)o1 | 9.22
56 | COc1ccc(OC)c(N(CC(=O)O)S(=O)(=O)c2ccc(OC)c(OC)c2)c1 | 8.13
57 | CCS(=O)(=O)Nc1ccc(-c2cc(-c3ccccc3)c3cc(C)ccc3n2)cc1 | -0.275
58 | CCCn1c(NC(=O)C2CCN(S(=O)(=O)c3cccs3)CC2)nc2ccccc21 | -5.74
